Results from PubChem BioAssay AID686978 (National Center for Advancing Translational Sciences (NCATS), 2013).
Among all 420,000 compounds or so, about 64,000 (15%) were called active. This list was built around the results that the source calls inconclusive (neither active nor inactive); the mix of calls is not that of the screen. Calls follow the shape of the dose curve; as a rule, active = well fitted inhibition curve with a large enough effect; inconclusive = small, poorly fitted or top-dose-only effect; inactive = flat fitted curve, though single readings scatter. No potency is given beside an inconclusive call; the fits are too rough.

Assay: qHTS for Inhibitors of human tyrosyl-DNA phosphodiesterase 1 (TDP1): qHTS in cells in absence of CPT; also: nearly all actives have a fitted effect of over 55% in size
Details: DT40 Tdp1-/- hTDP1 cells, no CPT, ATP luminescence, 48 h; activity change, negative = growth inhibition: at 46.2 µM (top of the series)
In short: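 Seeded 400 DT40-hTDP1 cells/well (vehicle DMSO, no 20 nM CPT); pinned compounds; ≥48 hr at 37 °C; CellTiter-Glo luminescence as viability measure.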
% is scaled to controls: 0 for no effect and ±100 for the full control effect; potency is read from the fitted curve at half-maximal effect; tags tell the direction and shape of the fitted curve.

Question: For `CC(C)C[C@H]1CN(CCCC[C@H]2CNC(=O)C(=O)N2CCC2CCCCC2)C(=O)C(=O)N1CCc1ccccc1`, which Potency is on record?
Answer: active: 18.4 µM

Question: With `Cc1c(C(=O)NCc2ccccc2Cl)sc2nc3n(c(=O)c12)CCCCC3` as the molecule, how does the Potency read?
Answer: active: 25.9 µM

Question: With `Cc1ccc(CNC(=O)CCn2cc(-c3ccc(C)cc3)nc2CCN)cc1` as the molecule, how does the Potency read?
Answer: inconclusive [inhibitor, partial curve]

Question: For `COc1ccc(-c2oc3c(c2C(=O)OCCCO)C(OCCCCCO)CCC3)cc1` (stereo unspecified), which Potency is on record?
Answer: inconclusive [inhibitor, single point]

Question: Which Potency does the source give for `CC(=O)c1cccc(NC(=O)C2CCN(C(=O)c3cnn(-c4ccccc4)c3-n3cccc3)CC2)c1` here?
Answer: inconclusive [inhibitor, single point]

Question: Which activity change, negative = growth inhibition does the source give for `Brc1cc2c(cc1-c1nc3ccccc3s1)OCO2` here?
Answer: inconclusive: -30.7% [inhibitor]

Question: For `Cc1[nH]nc2c1C(c1ccoc1)C(C#N)=C(N)O2` (stereo unspecified), which Potency is on record?
Answer: inactive

Question: With `CSc1cccc(NC(=O)CC2Oc3ccccc3NC2=O)c1` (stereo unspecified) as the molecule, how does the Potency read?
Answer: inactive

Question: With `CC1(C)CN2C(=O)c3ccccc3C2(C)S1` (stereo unspecified) as the molecule, how does the Potency read?
Answer: inactive

Question: For `O=C(Nc1ccc(Nc2ccccc2)cc1)c1ccc(Cl)cc1[N+](=O)[O-]`, which Potency is on record?
Answer: active: 16.4 µM

Question: For `Cc1cc(C)nc(SC2CC(=O)N(c3ccc(C)c(C)c3)C2=O)n1` (stereo unspecified), which Potency is on record?
Answer: active: 14.6 µM

Question: Which Potency does the source give for `O=C(O)c1ccc2nc3c(nc2c1)-c1ccccc1C3=O` here?
Answer: inconclusive [inhibitor, single point]

Question: For `Cc1ccc(-c2noc(CN(C(=O)Cc3ccccc3)C(C)C)n2)cc1`, which Potency is on record?
Answer: inconclusive [inhibitor, single point]

Question: With `Cc1ccccc1-c1nc2scc(CCNS(=O)(=O)c3ccccc3)n2n1` as the molecule, how does the Potency read?
Answer: inconclusive [inhibitor, single point]

Question: Which Potency does the source give for `c1csc(CNCc2ccncc2)c1` here?
Answer: inactive

Question: For `CN(Cc1ccc(C#CCCO)cc1)CC1CCCN(CCc2ccc(Cl)cc2)C1` (stereo unspecified), which Potency is on record?
Answer: active: 14.6 µM

Question: Which Potency does the source give for `COc1ccc(C2CC(c3ccc(Cl)cc3Cl)n3nc(N)nc3N2)cc1` (stereo unspecified) here?
Answer: inconclusive [inhibitor, single point]

Question: For `CC(=O)/C(=C/Nc1ccc(Oc2ccccc2)cc1)c1ccccc1`, which Potency is on record?
Answer: active: 18.4 µM

Question: Which Potency does the source give for `CCN(CC(=O)Nc1c(F)cccc1F)C(=O)c1cc2c(cc1Cl)N1CCCCCC1=NS2(=O)=O` here?
Answer: inactive

Question: Which Potency does the source give for `CCC1CCC2(CC1)NC(=O)N(CC(=O)Nc1ccc(OC)c(Cl)c1)C2=O` (stereo unspecified) here?
Answer: inconclusive [inhibitor, single point]

Question: Which Potency does the source give for `Cc1cccc(S(=O)(=O)N2CN(Cc3ccco3)c3nc4ccccc4nc32)c1` here?
Answer: inconclusive [inhibitor, single point]

Question: For `COc1ccc(NC(C)=O)cc1C`, which Potency is on record?
Answer: inactive

Question: Which Potency does the source give for `CCOc1ccc(-n2c(/C=C/c3cccc(F)c3)nc3cc(OC)c(OC)cc3c2=O)cc1` here?
Answer: active: 9.2 µM

Question: With `COc1ccc(-c2cc(-c3ccc(F)cc3)nc3c2COc2ccc(F)cc2-3)cc1` as the molecule, how does the Potency read?
Answer: inconclusive [inhibitor, single point]

Question: With `CCc1noc(C)c1C(=O)OC(C)C(=O)Nc1ccc(Cl)cn1` (stereo unspecified) as the molecule, how does the Potency read?
Answer: inconclusive [inhibitor, single point]

Question: Which Potency does the source give for `BrC(=C\c1ccccc1)/C=N/Nc1nc2ccccc2[nH]1` here?
Answer: inconclusive [inhibitor, single point]

Question: For `COc1ccc2c(c1OC)C(=O)OC2c1c(O)nc(SC)n(-c2ccccc2)c1=O` (stereo unspecified), which Potency is on record?
Answer: inactive

Question: For `COc1ccc(C(=O)c2oc3nc(C)cc(C)c3c2N)cc1`, which Potency is on record?
Answer: inconclusive [inhibitor, single point]

Question: With `COc1cccc(-c2ccc(O)c(CNCc3cccc(OC)c3OC)c2)n1` as the molecule, how does the Potency read?
Answer: inconclusive [inhibitor, single point]

Question: For `COc1ccc(CCN2C(=O)c3ccccc3C2c2nnnn2Cc2ccccc2)cc1OC` (stereo unspecified), which Potency is on record?
Answer: inconclusive [inhibitor, single point]

Question: For `C[C@H]1CN([C@@H](C)CO)C(=O)c2cc(NC(=O)NC3CCCCC3)ccc2O[C@H]1CN(C)C(=O)Nc1ccc(C(F)(F)F)cc1`, which Potency is on record?
Answer: inconclusive [inhibitor, single point]

Question: For `COc1ccc(Cc2nnc(SCC(=O)N(c3ccccc3)C(C)C)n(N)c2=O)cc1`, which Potency is on record?
Answer: inconclusive [inhibitor, single point]

Question: With `CC(C)(C)OC(=O)N1CCC(c2c(C(=O)Nc3ccc4c(c3)OCCO4)cnn2-c2ccc(Cl)cc2)CC1` as the molecule, how does the Potency read?
Answer: inconclusive [inhibitor, single point]

Question: Which Potency does the source give for `CCN(CC)C(=O)/C(=C\c1ccc(Br)cc1)NC(=O)c1ccccc1OC` here?
Answer: active: 14.6 µM

Question: With `O=C1CN(C(=O)COc2ccc(Cl)cc2)C(c2ccccc2)c2cc(Br)ccc2N1` (stereo unspecified) as the molecule, how does the Potency read?
Answer: inconclusive [inhibitor, single point]

Question: For `COC(=O)C(Cc1c[nH]c2ccccc12)NC(=O)c1cccc(S(=O)(=O)N2CCCCC2)c1` (stereo unspecified), which Potency is on record?
Answer: inactive

Question: For `O=C1COc2ccc(C(=O)c3ccccc3C(=O)NCc3ccco3)cc2N1`, which Potency is on record?
Answer: inactive

Question: For `COc1ccc(-c2cn[nH]c2-c2ccc(OCc3ccccc3)cc2O)cc1OC`, which Potency is on record?
Answer: active: 18.4 µM

Question: With `CCCCCOC(=O)c1[nH]c2c(c1C)C(=O)C(C(=O)OC)C(C)C2` (stereo unspecified) as the molecule, how does the Potency read?
Answer: active: 18.4 µM

Question: Which Potency does the source give for `CC(C)NC(=O)C1(C)CCCN1Cc1ccccc1C#N` (stereo unspecified) here?
Answer: inconclusive [inhibitor, single point]

Question: With `CCOC(=O)C1CCN(C(=O)Nc2ccc(Cl)cc2)CC1` as the molecule, how does the Potency read?
Answer: inactive

Question: With `CCCCC[C@@H](C)N1C[C@H](COCc2ccccc2)Oc2cc(N3CC[C@@H](N(C)C)C3)ccc2S1(=O)=O` as the molecule, how does the Potency read?
Answer: active: 20.6 µM

Question: Which Potency does the source give for `O=C(CSc1nc2ccc(Nc3nc(N4CCOCC4)nc(N4CCOCC4)n3)cc2s1)Nc1ccccc1F` here?
Answer: active: 5.8 µM

Question: With `COc1cccc(-c2oc3c(c2C(=O)OCCN2CCCCC2)C(O)CCC3)c1` (stereo unspecified) as the molecule, how does the Potency read?
Answer: inconclusive [inhibitor, single point]

Question: Which Potency does the source give for `Cc1cc(C)c(S(=O)(=O)N2CCCC2=O)c(C)c1` here?
Answer: inactive

Question: With `O=C(NCc1ccc2c(c1)OCO2)c1cc(-c2ccncc2)nc2ccccc12` as the molecule, how does the Potency read?
Answer: inconclusive [inhibitor, single point]
